# Measured values taken from article PMC6078998.
# The chains behind the UniProt entries cited, without tags or fusion partners. Where a name states a change or a piece, a line headed by the entry shows the natural chain unless it says otherwise. A line that says so, or that is headed by a name, gives the form on record, which may keep a tag or linker. Residues count along the entry.
# UniProt P54198: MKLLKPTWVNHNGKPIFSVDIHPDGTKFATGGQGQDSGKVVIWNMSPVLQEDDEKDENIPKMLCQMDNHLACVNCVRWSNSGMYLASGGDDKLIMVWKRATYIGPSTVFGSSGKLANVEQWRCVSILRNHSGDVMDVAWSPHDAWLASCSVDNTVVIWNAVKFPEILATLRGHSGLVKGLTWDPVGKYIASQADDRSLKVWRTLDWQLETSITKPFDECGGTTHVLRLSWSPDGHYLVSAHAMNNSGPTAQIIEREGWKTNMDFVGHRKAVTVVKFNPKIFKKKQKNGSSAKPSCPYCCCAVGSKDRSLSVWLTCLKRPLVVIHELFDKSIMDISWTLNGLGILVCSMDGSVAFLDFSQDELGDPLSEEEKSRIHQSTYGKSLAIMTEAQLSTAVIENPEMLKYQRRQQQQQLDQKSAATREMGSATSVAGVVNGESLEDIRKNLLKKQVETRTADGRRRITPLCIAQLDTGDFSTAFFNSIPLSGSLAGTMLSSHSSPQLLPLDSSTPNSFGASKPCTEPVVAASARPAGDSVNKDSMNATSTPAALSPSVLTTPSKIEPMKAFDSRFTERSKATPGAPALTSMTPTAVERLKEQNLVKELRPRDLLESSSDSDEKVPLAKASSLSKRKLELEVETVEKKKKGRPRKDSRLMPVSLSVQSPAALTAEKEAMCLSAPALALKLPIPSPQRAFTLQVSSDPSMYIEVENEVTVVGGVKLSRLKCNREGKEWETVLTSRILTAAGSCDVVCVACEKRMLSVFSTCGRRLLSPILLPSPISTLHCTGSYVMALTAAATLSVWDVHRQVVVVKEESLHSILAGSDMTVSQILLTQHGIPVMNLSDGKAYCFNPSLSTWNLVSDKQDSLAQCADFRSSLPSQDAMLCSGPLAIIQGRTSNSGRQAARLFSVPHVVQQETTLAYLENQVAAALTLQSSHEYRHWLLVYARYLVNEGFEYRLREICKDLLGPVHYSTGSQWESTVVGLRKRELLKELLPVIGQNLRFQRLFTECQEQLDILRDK
# HIRA(1–440), YFP-tagged: residues 1-440 of P54198
# HIRA(492–1017), YFP-tagged: residues 492-1017 of P54198
# HIRA(Δ759–782), YFP-tagged (P54198, form named): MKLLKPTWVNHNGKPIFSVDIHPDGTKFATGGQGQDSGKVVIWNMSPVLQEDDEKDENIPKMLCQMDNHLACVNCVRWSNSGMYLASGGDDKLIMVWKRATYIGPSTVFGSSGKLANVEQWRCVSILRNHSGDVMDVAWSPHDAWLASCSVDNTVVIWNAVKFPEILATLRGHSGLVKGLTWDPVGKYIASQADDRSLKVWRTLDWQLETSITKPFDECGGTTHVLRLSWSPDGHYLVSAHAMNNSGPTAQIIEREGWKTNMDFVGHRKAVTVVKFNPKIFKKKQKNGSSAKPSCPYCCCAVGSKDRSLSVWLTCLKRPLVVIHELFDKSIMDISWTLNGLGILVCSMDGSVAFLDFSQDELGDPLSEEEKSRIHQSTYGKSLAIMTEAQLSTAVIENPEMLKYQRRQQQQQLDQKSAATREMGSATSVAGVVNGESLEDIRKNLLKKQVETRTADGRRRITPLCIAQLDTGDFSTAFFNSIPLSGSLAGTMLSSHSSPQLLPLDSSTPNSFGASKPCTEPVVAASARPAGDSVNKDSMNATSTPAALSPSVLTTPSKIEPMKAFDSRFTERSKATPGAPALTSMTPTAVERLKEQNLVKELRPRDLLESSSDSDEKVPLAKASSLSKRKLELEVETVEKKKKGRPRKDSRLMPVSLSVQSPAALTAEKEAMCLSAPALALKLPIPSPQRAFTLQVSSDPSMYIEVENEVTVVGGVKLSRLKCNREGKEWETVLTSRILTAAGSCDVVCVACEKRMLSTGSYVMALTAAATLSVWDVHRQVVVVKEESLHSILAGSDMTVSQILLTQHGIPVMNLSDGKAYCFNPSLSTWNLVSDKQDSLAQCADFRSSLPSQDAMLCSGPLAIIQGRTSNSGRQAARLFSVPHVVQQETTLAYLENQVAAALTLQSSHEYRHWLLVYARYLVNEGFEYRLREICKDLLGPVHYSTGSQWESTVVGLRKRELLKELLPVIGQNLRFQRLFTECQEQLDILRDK
# HIRA(Δ759–782 + R227K), YFP-tagged (P54198, form named): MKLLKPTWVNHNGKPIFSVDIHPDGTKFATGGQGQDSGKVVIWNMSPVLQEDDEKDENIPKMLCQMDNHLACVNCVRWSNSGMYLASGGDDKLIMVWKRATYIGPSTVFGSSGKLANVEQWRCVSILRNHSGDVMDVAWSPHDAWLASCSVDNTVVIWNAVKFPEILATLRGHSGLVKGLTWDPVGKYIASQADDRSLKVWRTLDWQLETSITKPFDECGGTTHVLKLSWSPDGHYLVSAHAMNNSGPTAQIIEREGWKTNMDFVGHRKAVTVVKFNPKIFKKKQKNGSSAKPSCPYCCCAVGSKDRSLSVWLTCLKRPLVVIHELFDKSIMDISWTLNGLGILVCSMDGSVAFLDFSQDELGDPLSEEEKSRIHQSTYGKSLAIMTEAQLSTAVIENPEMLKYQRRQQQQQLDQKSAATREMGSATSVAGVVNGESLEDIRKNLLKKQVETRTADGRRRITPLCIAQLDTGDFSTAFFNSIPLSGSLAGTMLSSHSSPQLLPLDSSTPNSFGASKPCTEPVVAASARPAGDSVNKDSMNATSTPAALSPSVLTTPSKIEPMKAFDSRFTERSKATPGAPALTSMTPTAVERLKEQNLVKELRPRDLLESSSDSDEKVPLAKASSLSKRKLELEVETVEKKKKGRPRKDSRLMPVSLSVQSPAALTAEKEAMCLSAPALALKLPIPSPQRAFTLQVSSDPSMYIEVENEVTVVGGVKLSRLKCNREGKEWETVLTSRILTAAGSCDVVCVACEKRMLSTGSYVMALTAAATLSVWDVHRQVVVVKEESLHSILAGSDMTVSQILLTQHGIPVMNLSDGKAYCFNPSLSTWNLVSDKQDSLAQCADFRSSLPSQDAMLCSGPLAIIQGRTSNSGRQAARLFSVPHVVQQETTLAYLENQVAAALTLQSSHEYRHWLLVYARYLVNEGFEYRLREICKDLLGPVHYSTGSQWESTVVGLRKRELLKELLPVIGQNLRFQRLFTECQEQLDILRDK
# HIRA(Δ629–789), YFP-tagged (P54198, form named): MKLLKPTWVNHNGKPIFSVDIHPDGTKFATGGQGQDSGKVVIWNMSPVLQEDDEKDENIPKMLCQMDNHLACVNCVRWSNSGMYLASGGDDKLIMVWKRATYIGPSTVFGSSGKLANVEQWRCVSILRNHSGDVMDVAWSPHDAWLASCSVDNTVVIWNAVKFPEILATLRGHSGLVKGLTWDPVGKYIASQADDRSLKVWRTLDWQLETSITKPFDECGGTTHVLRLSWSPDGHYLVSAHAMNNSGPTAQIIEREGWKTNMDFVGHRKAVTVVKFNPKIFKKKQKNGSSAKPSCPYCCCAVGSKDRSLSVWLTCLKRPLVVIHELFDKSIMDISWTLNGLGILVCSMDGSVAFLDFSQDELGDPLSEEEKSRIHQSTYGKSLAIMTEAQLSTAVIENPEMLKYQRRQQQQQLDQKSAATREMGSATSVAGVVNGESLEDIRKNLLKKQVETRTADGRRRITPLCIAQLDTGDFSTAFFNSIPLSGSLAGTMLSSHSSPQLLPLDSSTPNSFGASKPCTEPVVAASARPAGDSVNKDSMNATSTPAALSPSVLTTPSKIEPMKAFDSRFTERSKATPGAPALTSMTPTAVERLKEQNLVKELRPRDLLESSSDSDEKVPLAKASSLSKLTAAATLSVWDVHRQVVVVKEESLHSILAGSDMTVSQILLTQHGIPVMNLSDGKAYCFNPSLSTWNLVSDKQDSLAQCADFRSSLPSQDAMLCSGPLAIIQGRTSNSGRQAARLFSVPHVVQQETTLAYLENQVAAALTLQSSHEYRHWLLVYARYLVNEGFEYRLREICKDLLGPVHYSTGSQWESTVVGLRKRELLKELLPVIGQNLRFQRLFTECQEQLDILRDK
# HIRA(Δ759–863), YFP-tagged (P54198, form named): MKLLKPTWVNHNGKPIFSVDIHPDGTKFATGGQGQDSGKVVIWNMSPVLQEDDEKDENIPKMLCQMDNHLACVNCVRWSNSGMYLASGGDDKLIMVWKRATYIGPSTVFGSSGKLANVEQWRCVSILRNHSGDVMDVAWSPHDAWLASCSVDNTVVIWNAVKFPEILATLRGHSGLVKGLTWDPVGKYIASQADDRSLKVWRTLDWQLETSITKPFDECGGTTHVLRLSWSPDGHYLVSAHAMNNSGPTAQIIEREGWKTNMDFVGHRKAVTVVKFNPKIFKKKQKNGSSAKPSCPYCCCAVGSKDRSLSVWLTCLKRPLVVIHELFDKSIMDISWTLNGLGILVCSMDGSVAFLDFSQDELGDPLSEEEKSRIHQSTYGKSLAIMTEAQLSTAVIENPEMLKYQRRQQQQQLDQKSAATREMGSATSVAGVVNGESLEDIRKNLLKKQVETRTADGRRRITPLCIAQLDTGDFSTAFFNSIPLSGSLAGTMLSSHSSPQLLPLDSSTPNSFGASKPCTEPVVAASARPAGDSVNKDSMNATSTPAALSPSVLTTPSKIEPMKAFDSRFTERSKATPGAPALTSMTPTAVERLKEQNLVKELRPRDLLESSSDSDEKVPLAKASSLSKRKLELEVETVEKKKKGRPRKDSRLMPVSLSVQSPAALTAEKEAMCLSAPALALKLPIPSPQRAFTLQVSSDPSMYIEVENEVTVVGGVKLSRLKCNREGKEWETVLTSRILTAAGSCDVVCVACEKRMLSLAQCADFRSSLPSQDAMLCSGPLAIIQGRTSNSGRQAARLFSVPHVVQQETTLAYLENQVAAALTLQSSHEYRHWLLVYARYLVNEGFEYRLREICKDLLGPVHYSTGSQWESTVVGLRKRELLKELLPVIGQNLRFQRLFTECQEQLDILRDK
# HIRA(Δ862–962), YFP-tagged (P54198, form named): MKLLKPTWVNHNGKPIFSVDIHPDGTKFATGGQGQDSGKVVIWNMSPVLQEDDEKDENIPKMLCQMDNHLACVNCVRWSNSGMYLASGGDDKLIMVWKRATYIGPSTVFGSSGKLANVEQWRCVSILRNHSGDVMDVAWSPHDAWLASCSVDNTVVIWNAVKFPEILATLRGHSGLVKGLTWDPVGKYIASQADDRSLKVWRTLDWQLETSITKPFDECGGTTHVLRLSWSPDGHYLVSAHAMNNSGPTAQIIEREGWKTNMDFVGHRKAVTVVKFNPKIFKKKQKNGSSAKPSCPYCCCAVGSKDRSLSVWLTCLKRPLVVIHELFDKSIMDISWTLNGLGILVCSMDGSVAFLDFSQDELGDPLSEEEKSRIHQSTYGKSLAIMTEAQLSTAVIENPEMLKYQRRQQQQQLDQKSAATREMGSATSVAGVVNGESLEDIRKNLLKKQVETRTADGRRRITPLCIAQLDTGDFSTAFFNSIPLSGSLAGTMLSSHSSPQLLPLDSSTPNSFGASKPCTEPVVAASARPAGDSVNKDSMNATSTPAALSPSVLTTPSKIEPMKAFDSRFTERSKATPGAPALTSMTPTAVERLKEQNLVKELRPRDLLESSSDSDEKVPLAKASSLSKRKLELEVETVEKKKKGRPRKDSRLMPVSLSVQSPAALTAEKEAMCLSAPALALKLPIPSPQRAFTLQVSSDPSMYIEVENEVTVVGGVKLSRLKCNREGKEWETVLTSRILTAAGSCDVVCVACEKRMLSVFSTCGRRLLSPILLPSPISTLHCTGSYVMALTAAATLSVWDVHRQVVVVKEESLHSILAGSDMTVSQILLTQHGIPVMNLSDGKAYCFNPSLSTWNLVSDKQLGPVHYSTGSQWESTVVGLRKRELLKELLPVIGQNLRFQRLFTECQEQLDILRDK
# UniProt Q9Y294: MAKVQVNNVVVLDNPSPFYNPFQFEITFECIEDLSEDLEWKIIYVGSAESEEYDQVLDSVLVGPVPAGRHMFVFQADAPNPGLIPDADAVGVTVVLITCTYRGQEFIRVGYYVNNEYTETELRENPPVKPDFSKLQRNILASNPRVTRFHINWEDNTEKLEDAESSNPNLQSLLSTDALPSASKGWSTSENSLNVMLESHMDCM
# Results are given in words; binding and its absence hold for the method and conditions named. For part of these data: In cells and extracts the contact can be indirect. Some entries that bind do so weakly or less than the wild type.
# Tests used:
# [1] = target: HIRA(1–440), YFP-tagged (human) (UniProt P54198); test: co-IP; GFP-Trap agarose beads on nuclear extracts (300 mM NaCl) of U2OS cells transfected with YFP-tagged HIRA constructs, alone or together with HIRA-HA; overnight at 4 °C, 150 mM NaCl, 0.5% Nonidet-P40 substitute, washes 300 mM NaCl; western blot for endogenous HIRA, UBN1, CABIN1, ASF1a or HA; one panel with cells treated with siRNA control or siCABIN1
# [2] = target: HIRA(492–1017), YFP-tagged (human) (UniProt P54198); test: as above
# [3] = target: HIRA(W799A–D800A), YFP-tagged (human) (UniProt P54198); test: as above
# [4] = target: HIRA(I461D), YFP-tagged (human) (UniProt P54198); test: as above
# [5] = target: HIRA(Δ759–782), YFP-tagged (human) (UniProt P54198); test: as above
# HIRA-YFP wt (human) = HIRA-YFP wt (human) (UniProt P54198); test: as above
# [6] = target: recombinant human HIRA(661–1017) (human) (UniProt P54198); test: SEC; purified HIRA(661–1017) alone on a size-exclusion column; 20 mM Tris pH 8.0, 300 mM NaCl, 1 mM TCEP; both purified
# [7] = target: HIRA(R227K), YFP-tagged (human) (UniProt P54198); test: co-IP; GFP-Trap agarose beads on nuclear extracts (300 mM NaCl) of U2OS cells transfected with YFP-tagged HIRA constructs, alone or together with HIRA-HA; overnight at 4 °C, 150 mM NaCl, 0.5% Nonidet-P40 substitute, washes 300 mM NaCl; western blot for endogenous HIRA, UBN1, CABIN1, ASF1a or HA; one panel with cells treated with siRNA control or siCABIN1
# [8] = target: HIRA(Δ759–782 + R227K), YFP-tagged (human) (UniProt P54198); test: as above
# [9] = target: HIRA(Δ629–789), YFP-tagged (human) (UniProt P54198); test: as above
# [10] = target: HIRA(Δ759–863), YFP-tagged (human) (UniProt P54198); test: as above
# [11] = target: HIRA(Δ862–962), YFP-tagged (human) (UniProt P54198); test: as above
substance,measurement,setting,value
endogenous HIRA (from UniProt P54198 1-1017),binding,[1],no binding
same,binding,[2],binds
same,binding,[3],no binding
"Anti-silencing factor 1 a (ASF1a), endogenous (from UniProt Q9Y294 1-204)",binding,[4],no binding
same,binding,[3],binds
same,binding,[5],binds
same,binding,HIRA-YFP wt (human),binds
recombinant human HIRA(661–1017) (from UniProt P54198 661-1017) (domain or fragment),binding,[6],binds
"Ubinuclein 1 (UBN1), endogenous (from UniProt Q9NPG3 1-1134)",binding,[1],binds
same,binding,[2],binds
same,binding,[7],binds
same,binding,[3],binds
same,binding,[8],no binding
same,binding,[5],binds
same,binding,HIRA-YFP wt (human),binds
HIRA-HA wt (from UniProt P54198 1-1017),binding,[9],binds
same,binding,[10],binds
same,binding,[11],binds
